The values below come from the RNAGym collection of RNA variant scans (doi:10.7554/elife.90254).

B1: OR4K15 (parent)
chain: GUUAACGGUCAUAGGCCAUGGAAACUAGGAGCACCAUUUCGCUGCCAGUGAAGAAAUGAACAAAGAAAAUCUGGGCCAGGCAGGCAUCAAAAGAAAUAGUCUUGCGCUCAACCAGAAAGUCUGUAAUCAUUUUAAGGGUA

The source gives no read counts; variants with many changes may rest on few reads.

Variants of B1 are the subject of this data set. Kind of data set: self-cleavage, relative activity (ratio to wild type); higher = more cleavage; in vitro, sequencing; the parent is a self-cleaving ribozyme.
Consider U37G U38C A51G, for which the self-cleavage was 0.74.

With U38A A96G U122A A126G, the self-cleavage is 1.38.

For the variant U37G A51G C128U, the self-cleavage was determined as 1.78.

As for U38C A95G U100C A111G, the self-cleavage was determined as 0.

Regarding U39C A54G U87C A116U, the self-cleavage stood at 0.05.

On to U37C U87A U108C, for which the self-cleavage stood at 0.01.

As to U38C A90G A114G, the self-cleavage is 0.19.

Consider U37C U49C A63G A118C, for which the self-cleavage was 1.09.

As to U38A A54G A91G U120C U127C, the self-cleavage was determined as 0.16.

As for U38A A64U C128A, the self-cleavage is 0.93.

For the variant U39C A52G A68G U97C A110G A126U, the self-cleavage worked out at 0.07.

In the case of U38C U87C U132A, the self-cleavage worked out at 1.73.

As to U38C U100A U139C, the self-cleavage amounted to 0.79.

Turning to U38C U39A U124C U130C, the self-cleavage was 0.69.

For the variant U37C A78G A118G, the self-cleavage came to 0.29.

For U37C U43A A82U G115U, the self-cleavage is 0.13.

For the variant U39C A54G U108C, the self-cleavage worked out at 0.03.

With U38G A67U U100C, the self-cleavage was 2.08.

On to U38C U102A U103C U139C, for which the self-cleavage is 0.12.

With U37C A68G U97A, the self-cleavage turned out to be 1.94.

U37C U102C U122C A129G: the self-cleavage came to 1.79.

U38A A60G U87A: the self-cleavage came to 1.18.

U37C C61U A67G A114G: the self-cleavage was 0.18.

With U37G A111G U124C, the self-cleavage is 0.01.

With U39A G75C U127C, the self-cleavage amounted to 0.08.

Consider U39A A89U A92G U127C A134G, for which the self-cleavage stood at 0.68.

On to U37C U57A U87C, for which the self-cleavage is 0.18.

For U38C A51G G83A U132C, the self-cleavage was determined as 2.11.

U39A A54G U57C U70C: the self-cleavage is 0.17.

Consider U38C A69G A78U G99A, for which the self-cleavage was 0.06.

For U37C A86G A94G U127C, the self-cleavage stood at 0.75.

U39C A54G A94G: the self-cleavage worked out at 1.39.

U38C U49C U130C: the self-cleavage turned out to be 0.86.

On to U39A U57C A67G A94G C109U A114U A117G, for which the self-cleavage stood at 0.01.

For the variant U39A U43C A54G U70A A82U A96G A135C, the self-cleavage stood at 0.09.

For the variant U37C A66G A92G U124C U139C, the self-cleavage turned out to be 0.32.

As to U38G A56G A82G U100C U120A, the self-cleavage stood at 1.26.

Regarding U38C U102C C105U U122C, the self-cleavage is 0.46.

Turning to U38A C46U U72A, the self-cleavage was 0.37.

On to U37C A69G G115A, for which the self-cleavage came out at 0.02.

As to U38C C107U A140G, the self-cleavage is 0.03.

Regarding U38C A51G A55G U139C, the self-cleavage was determined as 0.62.

U37C U38C U43C A60G U108C U130C: the self-cleavage came to 0.02.

With U37C U49C U131C, the self-cleavage stood at 1.1.

In the case of U38C A55U U87A A96G U108C, the self-cleavage was 0.01.

On to U39A A54U U108C, for which the self-cleavage came to 0.

Turning to U39C A47U C77U A116G U130C, the self-cleavage came to 0.42.

Regarding U37C U100C A117G, the self-cleavage worked out at 2.2.

For U38C A59G U97C, the self-cleavage is 1.19.

On to U39C A51G A90U A111G, for which the self-cleavage turned out to be 0.04.

On to U38C A59U A62G U72C A95U U108C A114G A117G, for which the self-cleavage was found to be 0.

For U39A A64G G74A, the self-cleavage worked out at 0.

As to U39C A54G U57C, the self-cleavage turned out to be 1.2.

Take U38C U122G U131C: the self-cleavage amounted to 2.25.

In the case of U38C A78U U87C U103C A114G, the self-cleavage turned out to be 0.06.

Take U39A A52G A55U U70C A89G U108A A118G: the self-cleavage came to 0.01.

For the variant U37C U38A A95G U108A, the self-cleavage worked out at 0.01.

As for U38C A55G G58U A134G, the self-cleavage turned out to be 1.47.

U38C A63G U100C A126G U127C A140U: the self-cleavage is 1.7.

U39A A56G U102C U132C: the self-cleavage turned out to be 2.35.

With U38A A47U A64C A94U U102C U108C, the self-cleavage turned out to be 0.01.

For the variant U38C U39A A126G A129G, the self-cleavage stood at 0.54.

For U37C U39C A47G U70C, the self-cleavage was 1.28.

On to U38C A59G U127C, for which the self-cleavage is 1.67.

On to U37C A60G A62G A117G, for which the self-cleavage came out at 1.18.

On to U38C U43C U122C, for which the self-cleavage turned out to be 1.29.

U37C U72A A92G: the self-cleavage came to 0.4.

On to U38C A51U A117G, for which the self-cleavage was found to be 2.

In the case of U37C A89U A126G, the self-cleavage was 1.55.

Consider U38C U49C A54G A63G G104A, for which the self-cleavage amounted to 0.04.

For the variant U37C A62C A82U A129U U130C, the self-cleavage is 0.12.

For U38C A118G U127C, the self-cleavage is 0.51.

On to U39A G50A A94G, for which the self-cleavage came to 2.17.

Consider U38C A89U A111G A140G, for which the self-cleavage is 0.01.

Regarding U38A A62G A117G U122C, the self-cleavage came out at 1.74.

On to U37C A92G U103C, for which the self-cleavage was 1.31.

U37C A68G U124C A125G: the self-cleavage is 0.63.

In the case of U38C G41A A64G U122C, the self-cleavage stood at 1.48.

For the variant U39C A47G A91G U130C, the self-cleavage was 0.66.

As to U39A U72C U122C, the self-cleavage was determined as 0.11.

For the variant U37C U103C U132C, the self-cleavage was 0.86.

Take U37C A89C U131G: the self-cleavage was found to be 0.32.

With U37C U100C A118G U122C, the self-cleavage is 1.04.
